What is called % Inhibition is the relative decrease from the control value, in per cent.

We go through 41 compounds from ChEMBL document CHEMBL4888484, “Replenishing the malaria drug discovery pipeline: Screening and hit evaluation of the MMV Hit Generation Library 1 (HGL1) against asexual blood stage Plasmodium falciparum ,using a nano luciferase reporter read-out” (2022).

Hit rate of the full screen: of about 150,000 compounds, about 540 (0.36%) showed an effect of 50% or more. Some of the results follow.

The assay has as its system Plasmodium falciparum. Kind of assay: Primary screen in NF54 nanoGlo assay, in single point, at 2uM, 72h; a lower Z score goes with more inhibition. The format is functional, Erythrocyte. Conditions: timepoint 72 hour.
As for `CC(C)c1nccc(CN2CCC3(CC2)C(=O)N(C)c2ccccc23)n1`, the “% Inhibition” value is listed as -5% and the Z score amounted to 1.03.

On to `Cc1nc(C)c(CC(=O)N2CCN(Cc3nonc3C)CC2)c(=O)[nH]1`, for which the “% Inhibition” value is -9% and the Z score was found to be 1.74.

On to `CNC(=O)c1ccc(CN(C)c2ccc(C#N)c(Cl)c2)o1`, for which the “% Inhibition” value is listed as -13% and the Z score was 1.31.

For `C=CCn1cc(CN2C[C@H]3CC[C@H]2C3)c(C)n1`, the “% Inhibition” value is -2% and the Z score was 0.33.

Turning to `CN1C[C@@]2(Cc3c1ccc1ccccc31)C(=O)NC(=O)N(C(C)(C)C)C2=O`, the “% Inhibition” value is listed as -8% and the Z score is 1.29.

`CCc1ncnc(NC[C@@H]2CCCN3CCCC[C@H]23)c1F`: the “% Inhibition” value was -6% and the Z score was 0.99.

On to `c1ccc(C2=NC(c3ccccc3)N3CC23c2ccccc2)cc1` (configuration not stated), for which the “% Inhibition” value is on record as -3% and the Z score came to 0.3.

Take `Cc1nccc(NCCN2CC3CCC(C2)O3)n1`: the “% Inhibition” value was found to be 2% and the Z score is given as -0.29.

Consider `Cc1cncc([C@@H]2CCCN2Cc2n[nH]c3c2COCC3)c1`, for which the “% Inhibition” value is on record as -2% and the Z score is listed as 0.44.

Consider `COc1ccc(C(=O)N(c2ccc(C(C)C)cc2)C2(C(=O)NCc3ccccc3)CCN(C(C)=O)CC2)cc1`, for which the “% Inhibition” value is -2% and the Z score came to 0.3.

For `COc1cccc2c1O[C@H](c1ccccc1)C1(C2)C(=O)NC(=O)NC1=O`, the “% Inhibition” value is -10% and the Z score is reported as 1.27.

Consider `COc1ccc(C(=O)N2C[C@@H]3COCCN3C3(CN(C(=O)COc4ccccc4)C3)C2)cc1`, for which the “% Inhibition” value is 2% and the Z score is -0.38.

Regarding `O=C(Cc1cnccn1)N1C[C@H]2CC[C@@H](C1)N(Cc1ccccn1)C2`, the “% Inhibition” value is -7% and the Z score stood at 1.45.

Consider `COc1nc(C)ccc1CNc1ncccc1C(=O)N1CCCCC1`, for which the “% Inhibition” value is reported as -11% and the Z score came to 0.97.

For the compound `COc1cc(=O)n2c(c1C(=O)O)CCCC2.NC1(c2nc(C3CC3)no2)CCCCC1`, the “% Inhibition” value is recorded as -16% and the Z score is recorded as 1.77.

As to `CCCNC(=O)N1C[C@@H](c2cccc(F)c2F)[C@@H]2[C@H]1C1CCN2CC1`, the “% Inhibition” value is listed as -9% and the Z score is recorded as 1.43.

Consider `O=C(c1ccccc1F)N1C[C@@H](c2ccc3c(c2)OCO3)[C@@H]2[C@H]1C1CCN2CC1`, for which the “% Inhibition” value is on record as 3% and the Z score was -0.53.

Consider `Cc1ccc(CC(C)NC(C)CCCC(C)(C)O)cc1` (configuration not stated), for which the “% Inhibition” value is 1% and the Z score was -0.15.

Regarding `CS(=O)(=O)N1C[C@@H]2CC[C@H]1CN(Cc1ccccn1)C2`, the “% Inhibition” value is recorded as -8% and the Z score was 1.07.

As to `CC12CCN(CC3(C#N)CC3)CC1C2(F)F` (configuration not stated), the “% Inhibition” value is recorded as -6% and the Z score was determined as 0.78.

Consider `Cc1cc(C)cc(-c2nc(-c3ccc4c(c3)oc(=O)n4C(C)C)no2)c1`, for which the “% Inhibition” value is on record as -4% and the Z score turned out to be 0.82.

`CN1C(C(=O)N2CCC3(CC2)OCCO3)=CC(c2ccco2)=NS1(=O)=O`: the “% Inhibition” value is on record as -13% and the Z score is listed as 2.53.

As for `CN(C)C1CCC2C3CC[C@H]4CC(O)CC[C@]4(C)C3CC[C@@]21C` (some centres not stated), the “% Inhibition” value is given as 2% and the Z score was -0.29.

Regarding `CC(=O)N(CC1CN(Cc2sccc2C)CC1c1ccc(C)cc1)C1CCCCC1` (configuration not stated), the “% Inhibition” value worked out at 12% and the Z score is -1.7.

In the case of `COc1cc(CN[C@@H](C)Cc2ccncc2)ccc1OCC=C(C)C`, the “% Inhibition” value is reported as -12% and the Z score turned out to be 1.11.

`Cc1c(C)[n+]([O-])c([C@@H](c2ccc3c(c2)n(C)c(=O)n3C)C2C(=O)N(C)C(=O)N(C)C2=O)n1Cc1ccccc1`: the “% Inhibition” value is given as -8% and the Z score was found to be 0.97.

With `CN(Cc1cnccn1)S(=O)(=O)c1cc(Br)c(C#N)cc1F`, the “% Inhibition” value is -14% and the Z score is on record as 2.05.

In the case of `CC(C)N1CCc2nc(NC(=O)c3ccc(-c4noc(=O)[nH]4)cc3)sc2C1`, the “% Inhibition” value was -6% and the Z score was determined as 0.66.

With `CCn1nc(C)c(CN2C[C@H](C(=O)O)[C@@H](c3ccc(F)cc3)C2)c1C`, the “% Inhibition” value is recorded as -13% and the Z score is 1.29.

For `CC1CC1C(=O)N1CC(CS(=O)(=O)F)C1` (configuration not stated), the “% Inhibition” value is recorded as -17% and the Z score is recorded as 1.78.

Turning to `CC(C)C(NCc1ncccc1Cl)C(O)c1ccc(Cl)cc1` (configuration not stated), the “% Inhibition” value was found to be 2% and the Z score is given as -0.3.

With `Cc1ccc(CN2C[C@@H]3CC[C@H]2CN(C)C3)s1`, the “% Inhibition” value is given as -10% and the Z score turned out to be 1.98.

On to `CN(c1ccccc1Oc1ccccc1)S(=O)(=O)c1ccc2[nH]c(=O)oc2c1`, for which the “% Inhibition” value is on record as -12% and the Z score turned out to be 1.37.

Turning to `C[C@H](NCCc1ccc2c(c1)OCO2)c1ccc(=O)[nH]n1`, the “% Inhibition” value was -2% and the Z score worked out at 0.33.

As to `CC(NCc1ccncc1F)C(c1ccccc1)N(C)C` (configuration not stated), the “% Inhibition” value is -3% and the Z score is reported as 0.36.

For `Cc1ncn(CC(=O)N2C[C@H]3COc4ccccc4C[C@@]3(C(=O)O)C2)c1C`, the “% Inhibition” value is recorded as -10% and the Z score worked out at 1.64.

In the case of `CC1CN2c3ccccc3CC3(C(=O)NC(=O)NC3=O)C2C(C)O1` (configuration not stated), the “% Inhibition” value is recorded as -5% and the Z score turned out to be 0.74.

In the case of `CC(C)[C@@H]1CN(C(=O)COc2ccccc2O)CCCN1CC1CC1`, the “% Inhibition” value is recorded as -4% and the Z score was 0.74.

On to `CC(C)=CCN1C[C@@H]2CC[C@H]1CN(Cc1c(C)noc1C)C2`, for which the “% Inhibition” value was 0% and the Z score stood at 0.05.

`CCOCC(=O)N1CCN(CCF)CC1`: the “% Inhibition” value was -16% and the Z score is listed as 2.04.

On to `Cc1cccc(N2CCC3(CCCN3Cc3[nH]cnc3C)CC2)n1`, for which the “% Inhibition” value is recorded as -2% and the Z score is given as 0.46.
